# Experimental data reported in PubChem BioAssay AID624417 (National Center for Advancing Translational Sciences (NCATS), 2012).
# Where “and” joins values, the source holds several entries; their conditions need not be identical. Identical values can stand only once. The whole screen tested about 410,000 compounds, of which about 6,400 (1.6%) were called active. Inconclusive means that the source gave no clear call. Such entries were picked first, then a sample of the others. Calls follow the shape of the dose curve; as a rule, active = well fitted inhibition curve with a large enough effect; inconclusive = small, poorly fitted or top-dose-only effect; inactive = no such curve, though single readings can be large or run the other way. Potencies of inconclusive entries are doubtful fits and often do not repeat.
# Biological target: Glucagon-like peptide 1 receptor (Homo sapiens) (UniProt P43220)
# Experiment: qHTS of GLP-1 Receptor Inverse Agonists (Inhibition Mode); also: nearly all actives have a fitted effect of over 55% in size
# Conditions: HEK293 GLP-1R CRE-luciferase, luminescence, 24 h, GLP-1R form is constitutively active; activity change, negative = inhibition: at 38.3 µM (top of the series) unless noted
# In short: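 Inverse agonists were sought by their lowering of basal cAMP reporter luciferase output in HEK293 cells stably carrying constitutively active human GLP-1R, after 24 h compound treatment.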
# % is scaled to controls: 0 for no effect and ±100 for the full control effect; potency is read from the fitted curve at half-maximal effect; tags tell the direction and shape of the fitted curve.
# Chain of UniProt P43220 (P43220 whole entry, looked up): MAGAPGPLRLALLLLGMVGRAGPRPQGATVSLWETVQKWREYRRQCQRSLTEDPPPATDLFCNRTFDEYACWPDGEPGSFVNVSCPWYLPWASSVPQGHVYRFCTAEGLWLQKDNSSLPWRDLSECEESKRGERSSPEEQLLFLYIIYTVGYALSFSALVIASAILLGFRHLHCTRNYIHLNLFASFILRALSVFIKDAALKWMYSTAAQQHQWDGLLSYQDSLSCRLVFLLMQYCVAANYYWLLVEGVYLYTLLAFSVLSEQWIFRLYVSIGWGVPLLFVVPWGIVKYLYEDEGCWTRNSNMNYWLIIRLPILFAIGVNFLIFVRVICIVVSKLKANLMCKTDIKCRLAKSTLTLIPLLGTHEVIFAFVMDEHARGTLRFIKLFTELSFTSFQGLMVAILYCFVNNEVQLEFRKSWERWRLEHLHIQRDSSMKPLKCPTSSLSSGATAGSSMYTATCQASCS
SMILES,Potency,"activity change, negative = inhibition"
Clc1ccc(-c2nc(CSc3ccccn3)cs2)cc1,"inconclusive: 28.2 µM [inhibitor, single point]",
O=C(NC1CCCCC1)N(Cc1cc2cc3c(cc2[nH]c1=O)OCCO3)CC1CCCO1 (stereo unspecified),,inactive: 44.9%
Cc1cc(C(=O)CNCc2ccco2)c(C)n1-c1ccc(F)cc1,"inconclusive: 11.2 µM [inhibitor, single point]",
COc1cccc2cc(C(=O)CS(=O)(=O)c3ccc(Cl)cc3)c(=O)oc12,"inconclusive: 10 µM [inhibitor, partial curve, poor fit]",
O=C(CSc1ccc(-c2ccc(Cl)cc2)nn1)N1CCCc2ccccc21,"inconclusive: 7.08 µM [inhibitor, partial curve]",
CC(=O)NC(c1ccccc1)c1nc(-c2csc3ccccc23)cs1 (stereo unspecified),"inconclusive: 28.2 µM [inhibitor, single point]",
Cc1cccc(OCCC(=O)NCC(c2ccco2)N2CCCCC2)c1 (stereo unspecified),"inconclusive: 28.2 µM [inhibitor, single point]",
COc1cccc(C2C3=C(CC(C)(C)CC3=O)Nc3cc4c(cc32)OCO4)c1 (stereo unspecified),"inconclusive: 28.2 µM [inhibitor, single point]",
Cc1nn(-c2ccccc2)c(C)c1/C=N/NC(=O)c1cc(C23CC4CC(CC(C4)C2)C3)[nH]n1,"inconclusive: 7.08 µM [inhibitor, partial curve, poor fit]",
Cc1ccc(CN(Cc2ccco2)C(=O)COc2cc(C)c(Cl)c(C)c2)cc1,"inconclusive: 22.4 µM [inhibitor, single point]",
CCOc1ccc(CSC2=NCCN2)cc1[N+](=O)[O-],"inconclusive: 14.1 µM [inhibitor, single point]",
COc1ccccc1-n1nnnc1SCC(=O)Nc1ccc(C)c(N)c1,"inconclusive: 2 µM [inhibitor, full curve]",
COc1ccc(CN(C)C(=O)c2cccc(S(=O)(=O)N3CCN(c4ccccc4)CC3)c2)c(OC)c1OC,"inconclusive: 11.2 µM [inhibitor, partial curve, poor fit]",
CCOc1ccc(N=C2NC(=O)C(CC(=O)O)S2)cc1 (stereo unspecified),,inactive: 9.63%
CC(C)C[C@H](NC(=O)c1[nH]cnc1C(=O)N[C@@H](C)C(=O)OC(C)(C)C)C(=O)OCc1ccccc1,"inconclusive: 6.31 µM [inhibitor, partial curve, poor fit]",
O=C(CSc1nc(C2CC2)nc2ccccc12)N1c2ccccc2Sc2ccc(C(F)(F)F)cc21,"inconclusive: 2.82 µM [inhibitor, full curve]",
COCCN1C(=O)c2[nH]nc(-c3ccccc3O)c2C1c1ccc(Cl)c(Cl)c1 (stereo unspecified),"inconclusive: 2.82 µM [inhibitor, partial curve, poor fit]",
Cc1ccc(NC(=Nc2ccc(Br)cc2)N2CCOCC2)cc1C,"inconclusive: 11.2 µM [inhibitor, partial curve, poor fit]",
CCCOc1ccc(Cn2c(=O)oc3ccc(C)cc32)cc1OC,"inconclusive: 22.4 µM [inhibitor, partial curve, poor fit]",
Cc1ccc(CN(C)C(=O)c2cc(COc3cccc(C(F)(F)F)c3)on2)o1,"inconclusive: 28.2 µM [inhibitor, single point]",
CC(C)(C)c1ccc(OCC(O)CN(CCO)CC(O)Cn2ccc3ccccc32)cc1 (stereo unspecified),"inconclusive: 5.62 µM [inhibitor, partial curve]",

SMILES,Potency,"activity change, negative = inhibition"
CCCCOc1cccc(C2c3c(oc4ccccc4c3=O)C(=O)N2c2ccccn2)c1 (stereo unspecified),,inactive: 11.9%
Cc1ccc2nc(-c3ccccc3)cc(C(=O)NCC3CCCO3)c2c1 (stereo unspecified),"inconclusive: 28.2 µM [inhibitor, single point]",
COC(=O)C(NC(C)=O)(Nc1cc(C)ccn1)C(F)(F)F (stereo unspecified),,inactive: 0.309%
CC(C)COC(=O)NCCOC(=O)Nc1cccc(Cl)c1,"inconclusive: 10 µM [inhibitor, partial curve]",
CCc1ccc(C(=O)c2cn(CC(=O)Nc3ccc(OC)c(OC)c3)c3ccc(C)cc3c2=O)cc1,,inactive: -10.6%
CCOC(=O)c1ccc(NC(=O)c2cn(-c3ccccc3)nc2-c2ccncc2)cc1,"inconclusive: 2.51 µM [inhibitor, full curve, poor fit]",
Cc1cc(C)cc(NC(=O)CN2CCc3ccccc3C2)c1,"inconclusive: 15.8 µM [inhibitor, single point]",
CCOc1ccc(NC(=O)C(C)Oc2ccccc2C(=O)Nc2cccc(Cl)c2Cl)cc1 (stereo unspecified),"inconclusive: 7.94 µM [inhibitor, partial curve, poor fit]",
COc1ccc(-c2nnc(SCC(=O)NCc3ccc(C)cc3)nc2-c2ccc(OC)c(OC)c2)cc1OC,"inconclusive: 14.1 µM [inhibitor, single point]",
CC(=N/O)/C(C)=N\NC(=O)c1ccccn1,,inactive: 11.7%
Cc1cccc2cc(CN(C(=S)NCC(C)C)C3CCCC3)c(=O)[nH]c12,"inconclusive: 12.6 µM [inhibitor, partial curve, poor fit]",
COc1cccc(CNC(=O)C23CN(Cc4ccccc4)CC2C(c2ccc([N+](=O)[O-])cc2)=NO3)c1 (stereo unspecified),"inconclusive: 22.4 µM [inhibitor, single point]",
COc1ccc(NC(=O)Nc2ccc(F)c(F)c2)c(OC)c1,"inconclusive: 11.2 µM [inhibitor, single point]",
N#CC1=C(N)SC(N)=C(C#N)C1Cc1ccccc1,,inactive: -12.7%
COc1cc(NC(=O)CN(C)S(=O)(=O)c2ccc(C)cc2)cc(OC)c1,"inconclusive: 5.01 µM [inhibitor, partial curve]",
CCOC(=O)Cn1c(=N)n(CCOc2ccc3ccccc3c2)c2ccccc21,"inconclusive: 28.2 µM [inhibitor, single point]",
Cc1cc(C)c(OCCNC(=O)c2ccccc2Sc2ccccc2C#N)c(C)c1,"inconclusive: 12.6 µM [inhibitor, partial curve, poor fit]",
O=C(CNC(=O)C12CC3CC(CC(C3)C1)C2)N1CCN(S(=O)(=O)/C=C/c2ccccc2)CC1,"inconclusive: 6.31 µM [inhibitor, partial curve, poor fit]",
CN(C)CCCN(Cc1ccccc1)C(=S)Nc1ccc(F)c(Cl)c1,active: 1.78 µM,
CCn1c(=O)c2sccc2n2c(CCCC(=O)N3CCN(c4cc(Cl)ccc4C)CC3)nnc12,,inactive: 2.03%
COc1cc2ccccc2cc1C(=O)N/N=C/c1cccs1,"inconclusive: 0.316 µM [inhibitor, full curve, poor fit]",

SMILES,Potency,"activity change, negative = inhibition"
Cc1cccc(C)c1NC(=S)NN(Cc1ccccc1)c1ccccc1,"inconclusive: 1.41 µM [inhibitor, full curve, poor fit]",
Cc1nc(-c2cccc(S(=O)(=O)N3CCCC(C)C3)c2)cs1 (stereo unspecified),"inconclusive: 22.4 µM [inhibitor, single point]",
O=C(Nc1nc(-c2cccs2)cs1)c1ccc(S(=O)(=O)N2CCCCC2)cc1,"inconclusive: 8.91 µM [inhibitor, partial curve, poor fit]",
COc1ccccc1CCN1C(=S)NC(C)(C)CC1(C)O (stereo unspecified),"inconclusive: 7.94 µM [inhibitor, partial curve, poor fit]",
O=C(c1[nH]c(C(F)(F)F)nc1-c1ccccc1)N1CCN(c2ccccc2)CC1,"inconclusive: 1 µM [inhibitor, full curve, poor fit]",
CCN(CC)c1cc(C)c2cc(NC(=O)c3ccccc3OC)ccc2n1,"inconclusive: 10 µM [inhibitor, partial curve] and inconclusive: 6.31 µM [inhibitor, partial curve, poor fit]",
CCn1nc(NC(=O)C(C)C)c2cc3cccc(C)c3nc21,"inconclusive: 6.31 µM [inhibitor, partial curve, poor fit]",
N#C/C(=C\c1ccc([N+](=O)[O-])cc1)c1ccccn1,"inconclusive: 28.2 µM [inhibitor, single point]",
CCOCCCN(C(=O)Cn1nnc(-c2ccc(C)o2)n1)C(C(=O)NC1CCCC1)c1ccco1 (stereo unspecified),"inconclusive: 11.2 µM [inhibitor, single point]",
CN(C)C(=O)C(NC(=O)c1ccccc1)=C(Cl)Cl,,inactive: 2.33%
CCOc1ccc(C(Nc2ccc(C)cc2)P2(=O)OCCCO2)cc1 (stereo unspecified),"inconclusive: 0.501 µM [inhibitor, full curve, poor fit]",
Cc1cc2nc(C(C)(C)C)c(Cc3ccsc3)n2c(C)c1Br,"inconclusive: 14.1 µM [inhibitor, single point]",
CCCCC[C@@H]1C=C(C(=O)O)[C@H](c2ccc3c(c2)OCO3)N1S(=O)(=O)c1ccc(C)cc1,"inconclusive: 17.8 µM [inhibitor, single point]",
Cc1ccc(S(=O)(=O)NNC(=S)Nc2ccccc2)cc1,,inactive: 8.77%
COc1nc(-c2ccccc2)cc(-c2ccccc2)n1,"inconclusive: 8.91 µM [inhibitor, partial curve, poor fit]",
Cc1cccc(C)c1-n1nnnc1C(c1ccnc2ccccc12)N(CCC#N)Cc1ccccc1 (stereo unspecified),"inconclusive: 28.2 µM [inhibitor, single point]",
COc1ccccc1C(=O)O/N=C1/CCCc2c1ccc(OC)c2[N+](=O)[O-],,inactive: 3.35%
CC1=C(C(=O)OCC(C)C)C(c2cccs2)NC(=S)N1 (stereo unspecified),"inconclusive: 7.94 µM [inhibitor, partial curve, poor fit]",
Cc1ccccc1C#CC1=CC(=O)CC(C)(C)C1,"inconclusive: 10 µM [inhibitor, partial curve]",
